# Measurements reported in PubChem BioAssay AID1508623 (National Center for Advancing Translational Sciences (NCATS), 2021).
# In all, about 48,000 compounds went through this assay and about 450 (0.94%) were called active. Another 19% or so got no clear call; they are omitted. The call rests on the fitted dose curve; in most records, active means well fitted inhibition curve with a large enough effect; inconclusive means small, poorly fitted or top-dose-only effect; inactive means no such curve, though single readings can be large or run the other way. This is one part of the list.
# Assay: Primary qHTS for Identification of Small Molecule Inhibitors of Huntingtin Promoter Activity; further: nearly all actives have a fitted effect of over 50% in size
# Details: HEK293 HTT promoter firefly luciferase reporter (activity 0% = vehicle and -100% = no light), 24 h; series mostly up to 57.5 µM; activity change, negative = inhibition: at the top concentration
# In short: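 Firefly luciferase signal from promoter-reporter HEK293 cells was scaled between vehicle (0%) and zero RLU (-100%). Compounds were tested at final concentrations of up to 57.5 uM over 24 h at 37 degrees C. PTC124 at 50 uM final served as control inhibitor.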
row,Compound,"activity change, negative = inhibition"
1,Cc1ccc(-c2nnc(SCCOc3ccccc3)o2)cc1,inactive: 16.4%
2,COc1ccc(Br)c2c1-c1nc(NC(=O)c3cccc(C)c3)sc1C2,inactive: -7.36%
3,CC(=O)c1ccc(NC(=O)CSc2cn(CC(=O)N3CCCCC3)c3ccccc23)cc1,inactive: -16.8%
4,O=C(Nc1ccc(S(=O)(=O)N2CCC(c3nc4ccccc4s3)CC2)cc1)c1ccc(F)cc1,inactive: -10.9%
5,Cc1cc(C)c(S(=O)(=O)NCCc2cc3c(C)ccc(C)c3[nH]c2=O)c(C)c1,inactive: -3%
6,Cc1ccc(NC(=O)C2Cc3ccccc3N2C(=O)c2ccccc2)cc1Cl (stereo unspecified),inactive: -7.64%
7,Cc1ccc(C)c(-n2nnc(-c3nc(-c4ccc(Cl)cc4)no3)c2N)c1,inactive: 28.3%
8,CCCC(=O)NCCc1nc2ccccc2n1Cc1c(F)cccc1Cl,inactive: -23.6%
9,COc1ccc(NC(=O)c2sc3nc(C)c(C(=O)Nc4ccc(C)cc4C)c(-c4ccc(Cl)cc4)c3c2N)cc1,inactive: -21.9%
10,O=C(NCc1ccc2c(c1)CCN2C(=O)c1ccncc1)c1cccc(Cl)c1,inactive: -4.31%
11,NNC(=O)c1ccncc1,inactive
12,CN(C(=O)CCCOc1ccc2[nH]c(=O)ccc2c1)C1CCCCC1,inactive: -0.849%
13,Cc1ccc(NC(=O)c2cccc(NC(=O)N3CCSc4ncccc43)c2)cc1Cl,inactive: -9.29%
14,COc1ccc(N2CCN(C(=O)Cn3ncc4c3-c3cc(C)ccc3OC4)CC2)cc1,inactive: -13.2%
15,COc1ccc(-c2nc3sc(CCNC(=O)C(=O)Nc4cc(C)cc(C)c4)c(C)n3n2)cc1,inactive: -1.07%
16,CCN(C(=O)c1nn(-c2ccc(OC)c(Cl)c2)c(=O)c2c1c1ccccc1n2C)c1cc(OC)ccc1OC,inactive: -16.3%
17,Cc1ccc(C(=O)NCC(c2cccs2)S(=O)(=O)c2cccs2)cc1C (stereo unspecified),inactive: -15.3%
18,CCOc1ccc(NC(=O)CN(C)S(=O)(=O)c2ccc3c(c2)c(=O)n(C)c(=O)n3C)cc1,inactive: -12%
19,COc1cc(OC)cc(C(=O)Nc2cc(-c3nc4ccccc4s3)ccc2OC)c1,inactive: -8.68%
20,O=C(NCC(c1ccc(Cl)cc1)N1CCCCC1)c1ccc(F)cc1 (stereo unspecified),inactive: -18.1%
21,COc1cccc(-c2cc(C(F)(F)F)nc(-n3nc(C)c(Br)c3C)n2)c1,inactive: -15.4%
22,Cc1ccc(-n2c(SCc3ccccc3F)nc3[nH]ncc3c2=O)cc1C,inactive: -18.3% [at 11.5 µM]
23,Cc1cccc(NC(=O)Cn2nc(-c3ccc(Cl)cc3)c3ccccc3c2=O)c1,inactive: -13.1%

row,Compound,"activity change, negative = inhibition"
1,COc1ccccc1CNC(=O)c1cccn1-c1nnc(N2CCCC2)s1,inactive: -0.25%
2,Cc1cccc(NC(=O)C(=O)c2cc(C)n(-c3ccccc3)c2C)c1C,inactive: -26%
3,CCOc1cccc2cc(-c3nc4sc(C(=O)Nc5ccc(C)cc5)c(C)c4c(=O)[nH]3)c(=O)oc12,inactive: -11.8%
4,CC(=O)c1cc(-c2ccccc2)n(CC(=O)NC2CCCCCC2)c1C,inactive: -16.1%
5,Cc1cc(O)c(C(c2cccc(F)c2)N2CCC(C)CC2)c(=O)n1Cc1ccco1 (stereo unspecified),inactive: -9.84%
6,O=C(Cn1c(=O)n(Cc2cccs2)c(=O)c2cccnc21)Nc1ccccc1F,inactive: -14.2%
7,CCc1nc(-c2cc(S(=O)(=O)N3CCN(c4ccc(F)cc4)CC3)ccc2OC)no1,inactive: -20.3%
8,Cc1cccc(NC(=O)CSc2nc3c(c(=O)[nH]2)CN(Cc2ccc4c(c2)OCO4)CC3)c1C,inactive: -18.8%
9,CCc1ccc(-n2c(=O)c3cccnc3n2CC(=O)NCc2ccc(F)cc2)cc1,inactive: -20.9%
10,O=C(NCc1cccc(F)c1)c1ccc(CS(=O)c2ccccc2Cl)o1 (stereo unspecified),inactive: -6.19%
11,CCOC(=O)N1CCc2c(sc3c2c(=O)n(Cc2ccccc2)c(=O)n3CC(=O)Nc2c(C)cccc2C)C1,inactive: -14.7%
12,Cn1c(=O)c(=O)n(C)c2cc(S(=O)(=O)N3CCN(c4ccccc4F)CC3)ccc21,inactive: -24.4%
13,Cc1cccc(C)c1OCC(=O)Nc1nonc1-c1ccc(Br)cc1,inactive: -14.1%
14,CCN(C(=O)CCS(=O)(=O)c1cccc2nsnc12)c1cccc(C)c1,inactive: -9.93%
15,O=C(Nc1nc2n(n1)C(c1ccc(F)cc1)C=C(c1ccc(Cl)cc1)N2)c1ccco1 (stereo unspecified),inactive: -29.8%
16,CCOc1ccc2oc(=O)cc(CN3CCN(c4ccc(OC)cc4)CC3)c2c1,inactive: -9.02%
17,CCN(C(=O)c1cc2c(s1)-c1c(C)cccc1OC2)c1cc(C)ccc1C,inactive: -19.8%
18,COc1ccc(OC)c(NC(=O)Cn2c(=O)oc3cc(S(=O)(=O)NCc4ccccc4)ccc32)c1,inactive: -29.8%
19,O=C(NCC12CC3CC(CC(C3)C1)C2)c1cc2nc(-c3ccc(Cl)cc3)cc(C(F)(F)F)n2n1,inactive: -7.28%
20,Clc1cccc(-c2nnc(CN3CCN(c4ccccn4)CC3)o2)c1,inactive: 3.68%
21,Cc1cc(S(=O)(=O)Nc2cc3c(cc2N2CCOCC2)n(C)c(=O)n3C)ccc1F,inactive: -11.5%
22,CCc1nc2ccc(C(=O)NCCc3ccc(SC)cc3)cc2nc1CC,inactive: 2.3%
23,COC(=O)c1c(SCC(=O)Nc2cccc(C(F)(F)F)c2)[nH]c2ccccc2c1=O,inactive: -4.89%
